Experimental data: publication PMC10432976
Results are given in words; binding and its absence hold for the method and conditions named. In cells and extracts the contact can be indirect. Some entries that bind do so weakly or less than the wild type. Sequences can lack the tags named with a protein.

Sequences of proteins named here, by UniProt entry; tags and fusion partners are left off.
UniProt Q99836: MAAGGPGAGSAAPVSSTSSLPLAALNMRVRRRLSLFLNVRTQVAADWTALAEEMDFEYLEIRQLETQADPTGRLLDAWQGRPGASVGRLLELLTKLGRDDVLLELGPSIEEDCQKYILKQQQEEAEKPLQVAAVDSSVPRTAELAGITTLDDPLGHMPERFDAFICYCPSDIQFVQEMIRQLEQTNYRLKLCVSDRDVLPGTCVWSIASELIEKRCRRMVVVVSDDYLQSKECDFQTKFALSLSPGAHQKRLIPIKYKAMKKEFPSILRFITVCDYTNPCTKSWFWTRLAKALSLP

T1: HA-Fli1 (pcDNA3-HA-Fli1, full-length mouse Fli1) (mouse) (UniProt Q9JJ28)
T1 sequence: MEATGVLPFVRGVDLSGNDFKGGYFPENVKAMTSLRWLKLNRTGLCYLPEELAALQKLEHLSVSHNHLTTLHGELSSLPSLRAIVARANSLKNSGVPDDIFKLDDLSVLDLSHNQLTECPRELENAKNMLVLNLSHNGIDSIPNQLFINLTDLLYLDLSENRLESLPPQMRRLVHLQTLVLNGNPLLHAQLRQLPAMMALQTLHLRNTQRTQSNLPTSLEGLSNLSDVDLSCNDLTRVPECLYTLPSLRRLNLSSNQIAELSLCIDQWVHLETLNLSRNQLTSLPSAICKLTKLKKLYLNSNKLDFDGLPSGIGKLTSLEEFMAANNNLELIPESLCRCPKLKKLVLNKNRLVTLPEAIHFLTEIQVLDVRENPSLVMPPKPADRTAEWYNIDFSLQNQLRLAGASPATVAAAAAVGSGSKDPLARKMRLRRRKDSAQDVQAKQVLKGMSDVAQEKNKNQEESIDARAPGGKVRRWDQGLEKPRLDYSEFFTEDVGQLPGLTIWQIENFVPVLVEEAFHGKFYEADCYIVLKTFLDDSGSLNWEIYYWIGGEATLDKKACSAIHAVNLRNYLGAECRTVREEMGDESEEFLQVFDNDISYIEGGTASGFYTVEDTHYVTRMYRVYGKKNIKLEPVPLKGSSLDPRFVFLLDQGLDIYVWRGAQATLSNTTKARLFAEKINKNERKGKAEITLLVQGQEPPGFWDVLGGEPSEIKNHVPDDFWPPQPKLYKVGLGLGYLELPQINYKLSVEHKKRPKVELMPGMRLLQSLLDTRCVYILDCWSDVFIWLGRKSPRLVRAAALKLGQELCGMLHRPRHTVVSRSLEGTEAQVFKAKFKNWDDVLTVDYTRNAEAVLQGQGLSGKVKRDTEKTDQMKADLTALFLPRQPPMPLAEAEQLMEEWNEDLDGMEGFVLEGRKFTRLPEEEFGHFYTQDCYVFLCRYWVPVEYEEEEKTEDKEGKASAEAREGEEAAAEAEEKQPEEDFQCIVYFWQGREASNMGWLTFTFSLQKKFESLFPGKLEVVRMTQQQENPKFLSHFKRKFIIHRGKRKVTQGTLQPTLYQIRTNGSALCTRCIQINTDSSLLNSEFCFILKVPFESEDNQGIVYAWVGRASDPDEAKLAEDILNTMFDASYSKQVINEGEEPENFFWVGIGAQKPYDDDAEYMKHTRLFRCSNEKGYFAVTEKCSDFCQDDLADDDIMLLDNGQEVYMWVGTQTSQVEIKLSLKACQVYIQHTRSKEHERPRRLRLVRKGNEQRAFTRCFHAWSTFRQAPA

T2: Flag-TRB3 (expressed in Min6 cells) (UniProt Q8K4K2)
T2 sequence: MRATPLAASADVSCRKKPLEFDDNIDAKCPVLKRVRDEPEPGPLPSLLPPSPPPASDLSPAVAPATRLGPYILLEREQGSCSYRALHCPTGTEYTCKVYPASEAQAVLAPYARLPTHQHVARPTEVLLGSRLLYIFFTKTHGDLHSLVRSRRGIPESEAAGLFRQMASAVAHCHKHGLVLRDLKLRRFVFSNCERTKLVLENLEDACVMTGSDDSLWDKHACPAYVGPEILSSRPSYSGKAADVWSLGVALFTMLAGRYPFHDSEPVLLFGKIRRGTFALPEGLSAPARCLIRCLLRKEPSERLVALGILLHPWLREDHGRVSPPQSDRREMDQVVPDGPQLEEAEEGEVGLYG

T3: HA-Fli1-LRR (HA-tagged Fli1 N-terminal 400 amino acids) (UniProt Q13045)
T3 sequence: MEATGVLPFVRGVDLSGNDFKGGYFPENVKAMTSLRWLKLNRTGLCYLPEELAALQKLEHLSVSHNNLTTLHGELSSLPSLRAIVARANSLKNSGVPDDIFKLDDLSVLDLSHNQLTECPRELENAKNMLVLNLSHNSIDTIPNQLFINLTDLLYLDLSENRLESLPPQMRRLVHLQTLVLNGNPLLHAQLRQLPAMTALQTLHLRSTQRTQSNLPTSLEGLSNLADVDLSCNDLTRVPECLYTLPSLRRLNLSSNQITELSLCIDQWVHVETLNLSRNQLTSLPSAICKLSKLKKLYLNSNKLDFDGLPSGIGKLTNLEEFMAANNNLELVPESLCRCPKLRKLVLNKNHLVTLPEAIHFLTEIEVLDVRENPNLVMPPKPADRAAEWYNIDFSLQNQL


Legend:
[1] = target: T1, HA-Fli1 (pcDNA3-HA-Fli1, full-length mouse Fli1) (mouse); test: co-IP; HA-Fli1 and Myc-MyD88 in transfected Min6 cells (monolayers); HA immunoprecipitation, blot for MyD88; vehicle or IL1β 10 ng/ml for 30 min; control gRNA, TRB3 gRNA, or coexpressed HA-TRB3 or Myc-TRB3
[2] = target: T2, Flag-TRB3 (expressed in Min6 cells); test: co-IP; Flag-TRB3 in Min6 cells clustered into pseudoislets, untreated (no IL1β); Flag immunoprecipitates blotted for endogenous Fli1
[3] = target: T2, Flag-TRB3 (expressed in Min6 cells); test: co-IP; Flag-TRB3 in Min6 cells clustered into pseudoislets, treated with IL1β (10 ng/ml) for 30 min; Flag immunoprecipitates blotted for endogenous Fli1
[4] = target: T3, HA-Fli1-LRR (HA-tagged Fli1 N-terminal 400 amino acids); test: co-IP; HA-tagged LRR domains and Flag-TRB3 coexpressed in HepG2 cells; HA immunoprecipitation, Western blot for Flag-TRB3; without or with LPS 10 ng/ml for 30 min

binding [1]	Molecule	other results
binds	Myc-MyD88 (from UniProt Q99836 1-296)	
	endogenous Flightless homolog 1 (Fli1) of Min6 cells (protein, UniProt Q9JJ28 1-1271) MEATGVLPFVRGVDLSGNDFKGGYFPENVKAMTSLRWLKLNRTGLCYLPEELAALQKLEHLSVSHNHLTTLHGELSSLPSLRAIVARANSLKNSGVPDDIFKLDDLSVLDLSHNQLTECPRELENAKNMLVLNLSHNGIDSIPNQLFINLTDLLYLDLSENRLESLPPQMRRLVHLQTLVLNGNPLLHAQLRQLPAMMALQTLHLRNTQRTQSNLPTSLEGLSNLSDVDLSCNDLTRVPECLYTLPSLRRLNLSSNQIAELSLCIDQWVHLETLNLSRNQLTSLPSAICKLTKLKKLYLNSNKLDFDGLPSGIGKLTSLEEFMAANNNLELIPESLCRCPKLKKLVLNKNRLVTLPEAIHFLTEIQVLDVRENPSLVMPPKPADRTAEWYNIDFSLQNQLRLAGASPATVAAAAAVGSGSKDPLARKMRLRRRKDSAQDVQAKQVLKGMSDVAQEKNKNQEESIDARAPGGKVRRWDQGLEKPRLDYSEFFTEDVGQLPGLTIWQIENFVPVLVEEAFHGKFYEADCYIVLKTFLDDSGSLNWEIYYWIGGEATLDKKACSAIHAVNLRNYLGAECRTVREEMGDESEEFLQVFDNDISYIEGGTASGFYTVEDTHYVTRMYRVYGKKNIKLEPVPLKGSSLDPRFVFLLDQGLDIYVWRGAQATLSNTTKARLFAEKINKNERKGKAEITLLVQGQEPPGFWDVLGGEPSEIKNHVPDDFWPPQPKLYKVGLGLGYLELPQINYKLSVEHKKRPKVELMPGMRLLQSLLDTRCVYILDCWSDVFIWLGRKSPRLVRAAALKLGQELCGMLHRPRHTVVSRSLEGTEAQVFKAKFKNWDDVLTVDYTRNAEAVLQGQGLSGKVKRDTEKTDQMKADLTALFLPRQPPMPLAEAEQLMEEWNEDLDGMEGFVLEGRKFTRLPEEEFGHFYTQDCYVFLCRYWVPVEYEEEEKTEDKEGKASAEAREGEEAAAEAEEKQPEEDFQCIVYFWQGREASNMGWLTFTFSLQKKFESLFPGKLEVVRMTQQQENPKFLSHFKRKFIIHRGKRKVTQGTLQPTLYQIRTNGSALCTRCIQINTDSSLLNSEFCFILKVPFESEDNQGIVYAWVGRASDPDEAKLAEDILNTMFDASYSKQVINEGEEPENFFWVGIGAQKPYDDDAEYMKHTRLFRCSNEKGYFAVTEKCSDFCQDDLADDDIMLLDNGQEVYMWVGTQTSQVEIKLSLKACQVYIQHTRSKEHERPRRLRLVRKGNEQRAFTRCFHAWSTFRQAPA	binding [2]: no binding (condition: untreated cells (without IL1β)); binding [3]: binds
binds	HA-TRB3 (coexpressed in Min6 cells) (protein, UniProt Q8K4K2 1-354) MRATPLAASADVSCRKKPLEFDDNIDAKCPVLKRVRDEPEPGPLPSLLPPSPPPASDLSPAVAPATRLGPYILLEREQGSCSYRALHCPTGTEYTCKVYPASEAQAVLAPYARLPTHQHVARPTEVLLGSRLLYIFFTKTHGDLHSLVRSRRGIPESEAAGLFRQMASAVAHCHKHGLVLRDLKLRRFVFSNCERTKLVLENLEDACVMTGSDDSLWDKHACPAYVGPEILSSRPSYSGKAADVWSLGVALFTMLAGRYPFHDSEPVLLFGKIRRGTFALPEGLSAPARCLIRCLLRKEPSERLVALGILLHPWLREDHGRVSPPQSDRREMDQVVPDGPQLEEAEEGEVGLYG	
binds	Myc-TRB3 (coexpressed in Min6 cells) (protein, UniProt Q8K4K2 1-354) MRATPLAASADVSCRKKPLEFDDNIDAKCPVLKRVRDEPEPGPLPSLLPPSPPPASDLSPAVAPATRLGPYILLEREQGSCSYRALHCPTGTEYTCKVYPASEAQAVLAPYARLPTHQHVARPTEVLLGSRLLYIFFTKTHGDLHSLVRSRRGIPESEAAGLFRQMASAVAHCHKHGLVLRDLKLRRFVFSNCERTKLVLENLEDACVMTGSDDSLWDKHACPAYVGPEILSSRPSYSGKAADVWSLGVALFTMLAGRYPFHDSEPVLLFGKIRRGTFALPEGLSAPARCLIRCLLRKEPSERLVALGILLHPWLREDHGRVSPPQSDRREMDQVVPDGPQLEEAEEGEVGLYG	
	Flag-TRB3 (coexpressed in HepG2 cells) (protein, UniProt Q8K4K2 1-354) MRATPLAASADVSCRKKPLEFDDNIDAKCPVLKRVRDEPEPGPLPSLLPPSPPPASDLSPAVAPATRLGPYILLEREQGSCSYRALHCPTGTEYTCKVYPASEAQAVLAPYARLPTHQHVARPTEVLLGSRLLYIFFTKTHGDLHSLVRSRRGIPESEAAGLFRQMASAVAHCHKHGLVLRDLKLRRFVFSNCERTKLVLENLEDACVMTGSDDSLWDKHACPAYVGPEILSSRPSYSGKAADVWSLGVALFTMLAGRYPFHDSEPVLLFGKIRRGTFALPEGLSAPARCLIRCLLRKEPSERLVALGILLHPWLREDHGRVSPPQSDRREMDQVVPDGPQLEEAEEGEVGLYG	binding [4]: binds
